Some of the results follow.
The sequences below were run on PfHDP1 homeodomain (GST-tagged) (assay: gcPBM binding intensity (ln(normalized median fluorescence intensity)); higher = stronger DNA binding).
Summary of the method: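 For binding intensity, the highest Masliner-normalised natural-log median intensity across replicate spots of either probe orientation was taken. Protein bound to the array was stained with Alexa488 anti-GST antibody and scanned at 488 nm. The protein, GST-tagged P. falciparum DNA-binding domains from E. coli at about 25 μg on average, had been applied for 1 h to an Agilent 4 × 180k array of primer-extended double-stranded 36-bp intergenic genomic probes and negative controls.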

Sequence	gcPBM binding intensity (ln)
TATTTATTTTTCTGTTGTACTTTTCAACATGTTACA [XGTACX_site7457]	6.8
TCTACATATTAATTATGTACGAATTATTATTAGTAA [XGTACX_site6924]	6.03
TAAATGGGTGTTAATGCACACGATATGTCTATATAT [CACACA_site5321]	9.86
ATACTATATATATAAGTGCATGTTCATTATACCTAA	7.23
ATAACTAAATGATATTGTACAAAATAATTATATATT [XGTACX_site1331]	6.38
ATATATATTATGTGTGTGCACTTTTGTTATTATTAT	9.03
AAAAATCAATTAGAAGAACACACGTAAATTTTTTTT [CACACA_site2396]	6.47
CATTATATGATTTATGTGCACATTCATTTATTTTAA	10.8
TATTAATAAAACCGTTGTACTACATACATAAATATT [XGTACX_site5578]	6.5
AAAAAAAAAAAAAAATGTACAAAAATTACTATAAAA [XGTACX_site7683]	6.39
TTTTTTTTTGTTTACACACACAAAATATTATATGTA [CACACA_site2470]	6.61
TTATAACACATTACATGTACAAATATAAATATATTC [XGTACX_site6503]	6.46
AAAAATATATATAACACACACATAATATATATATAT [CACACA_site2537]	8.94
TATTATTACGTAATATGTACATATATTTATACCACT [XGTACX_site5918]	6.95
AGGAAAAACTTGAATGCATGCGCACATTCTAGTTTG [TGCATGCA_site776]	6.68
ACAAATCTAAGATAGTGTACATTTATATATATATAT [XGTACX_site8740]	8.96
TTTATTTATCTGTATACACACTTTAATGAAAAGTTG [CACACA_site5400]	7.03
TTTATATACACACAGAAGAACAGAAATATTATATAT [TGCATGCA_negctrl_site483]	6.69
AATATAAATAAAAACACACACACACCCATATATATA [CACACA_site2267]	7.13
TATATATATATATAAGTGCATATAAAAATCGTTCGT	9.45
ATTTTTTTTTTTTTTTTTTTTTTTTGGAGAAAGAGA [CACACA_negctrl_site1119]	5.98
ATATATATATAATAAACACACACATATACATATATG [CACACA_site9145]	8.39
ATAAATACTAGGCACACACACATATATATATATATA [CACACA_site2080]	9.43

Sequence	gcPBM binding intensity (ln)
ATATATATATATATATGTACATATATGTATACCTTA [XGTACX_site6791]	9.38
CAATAGTTCTTATGGGTGCAAACCACATATATATAA [GTGCAC_site9606]	8.76
AAAATTATATATTATTGTACATAAAATTTTGACATA [XGTACX_site4886]	6.45
ATAACGATATATGTGCGTACTTATAGAATAAGCAAA [XGTACX_site6743]	6.94
ATATATCATATTATAGTGCATTTATAATAATATTAT	8.51
TATTATCTGTAGTGTACACATATTATATAGTACTTT [CACACA_site4582]	7
TATTTTTTTTTTATATGTACATAATTTCAAATAAAT [XGTACX_site7747]	6.55
AAGGATATAACATACACACACACACCGATATATATA [CACACA_site6136]	7.04
CTTTAACCTTTTTATTGTACTTTTAATATTTTAAAA [XGTACX_site4457]	6.81
TCTTTAATGAACAAATGTACAAGAACAATACCCGCA [XGTACX_site2047]	6.83
AATATATGGTATAATTGTACAAAAAAAAAAAAAAAA [XGTACX_site1476]	6.38
GTGAAATGGAAAAAAAGTACAGATTACATAAGTATT [XGTACX_site6355]	6.33
TATTAATTTATATCAACACACAAAATCAATATACTT [CACACA_site1757]	6.28
ATATAGATCAGACACACACACATGTTTTAAAACTAT [CACACA_site6186]	7.03
AAGGAATAATATAAAACACACACATAAATATAAATA [CACACA_site9115]	7.01
CGAAATATTATGTACGCACACACATTTTTAATATAT [CACACA_site3852]	6.96
TTCTATATTTTAGCTGATAATATTATGAGCTTCACT [XGTACX_negctrl_site427]	6.44
AACATAAATATATATAGTACATATATATATATTCAA [XGTACX_site7287]	6.31
AGCTCATGCAGGTGTACACAAAAAGAAAAAAAATAA [CACACA_site4828]	6.74
AAAACAAATATATTAACACACAAACATATAAACAAA [CACACA_site6052]	7.07
ATAAATAATGTTGACACACACAATAATCTTATTATG [CACACA_site3593]	6.51
CCCCATATAATGAACACACACACTCCTCATAATTAA [CACACA_site628]	6.93
